Results from the supplement of paper PMC4604168 (melanoma cell lines).
Some of the results follow. Many values rest on one well or one pass, so single values are uncertain.

What was measured:
Assay in all cases: cell count relative to DMSO control; melanoma cells; higher = more viable cells
Settings in all cases: library dose: low library concentration; 72 h
[1] = tested on: COLO792
[2] = tested on: COLO800
[3] = tested on: COLO829
[4] = tested on: G361
[5] = tested on: IPC-298
[6] = tested on: IST-MEL1
[7] = tested on: LB2518-MEL
[8] = tested on: LOXIMVI
[9] = tested on: MEL-HO
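Also: cell number obtained by counting DAPI-stained nuclei in high-throughput microscope images with image analysis software, screen run in 1,536-well plates.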

`Cc1cc(Nc2cc(N3CCN(C)CC3)nc(Sc3ccc(NC(=O)C4CC4)cc3)n2)n[nH]1` [Tozasertib] + O=C(CCCCCCC(=O)Nc1ccccc1)NO [vorinostat] (first compound 0.006 µM, partner dose 0.08 µM) was tested, and the cell count [1] was 87%, the cell count [2] was 113% and the cell count [3] was 94.6%. It also gave a cell count [4] of 79.2%, a cell count [5] of 105% and a cell count [6] of 95.5%. It also gave a cell count [7] of 92.1%, a cell count [8] of 82.4% and a cell count [9] of 90.6%.

Molecule `CC[C@]1(O)C[C@H]2CN(CCc3c([nH]c4ccccc34)[C@@](C(=O)OC)(c3cc4c(cc3OC)N(C=O)[C@H]3[C@@](O)(C(=O)OC)[C@H](OC(C)=O)[C@]5(CC)C=CCN6CC[C@]43[C@@H]65)C2)C1` [vincristine] + C=CCn1c(=O)c2cnc(Nc3ccc(N4CCN(C)CC4)cc3)nc2n1-c1cccc(C(C)(C)O)n1 [MK1775] (first compound 0.0001 µM, partner dose 0.02 µM) has a cell count [1] of 79.2%, a cell count [2] of 88.2% and a cell count [3] of 105%. For the same molecule, the cell count [4] was 103%, the cell count [5] was 90.4% and the cell count [6] was 93.5%. It also gave a cell count [7] of 76.3%, a cell count [8] of 64.5% and a cell count [9] of 91.5%.

Work on `CC[C@]1(O)C[C@H]2CN(CCc3c([nH]c4ccccc34)[C@@](C(=O)OC)(c3cc4c(cc3OC)N(C=O)[C@H]3[C@@](O)(C(=O)OC)[C@H](OC(C)=O)[C@]5(CC)C=CCN6CC[C@]43[C@@H]65)C2)C1` [vincristine] + COc1cc(N2CCC(N3CCN(C)CC3)CC2)ccc1Nc1ncc(Cl)c(Nc2ccccc2S(=O)(=O)C(C)C)n1 [NVP-TAE684] (first compound 0.0001 µM, partner dose 0.08 µM) yielded a cell count [1] of 99.7%, a cell count [2] of 124% and a cell count [3] of 69.1%. For the same molecule, the cell count [4] was 86.7%, the cell count [5] was 108% and the cell count [6] was 107%. It also gave a cell count [7] of 108%, a cell count [8] of 79.2% and a cell count [9] of 96.4%.

In the case of `CC[C@]1(O)C[C@H]2CN(CCc3c([nH]c4ccccc34)[C@@](C(=O)OC)(c3cc4c(cc3OC)N(C=O)[C@H]3[C@@](O)(C(=O)OC)[C@H](OC(C)=O)[C@]5(CC)C=CCN6CC[C@]43[C@@H]65)C2)C1` [vincristine] + COc1cc2ncnc(Nc3ccc(Oc4ccccc4)cc3)c2cc1OC [SrcI1] (first compound 0.0001 µM, partner dose 2 µM), the cell count [1] is reported as 94.6%, the cell count [2] is reported as 99.9% and the cell count [3] is reported as 89.3%. It also gave a cell count [4] of 93%, a cell count [5] of 104% and a cell count [6] of 87%. The cell count [7] was 108%, the cell count [8] was 88.5% and the cell count [9] was 103%.

`N#CC[C@H](C1CCCC1)n1cc(-c2ncnc3[nH]ccc23)cn1` [ruxolitinib] + O=C(Nc1cccc(Cl)c1)Nc1ncc(CCNc2ncnc3ccsc23)s1 [SNS314] (first compound 1 µM, partner dose 0.0008 µM) gave a cell count [1] of 101%, a cell count [2] of 177% and a cell count [3] of 111%. The cell count [4] was 92.1%, the cell count [5] was 106% and the cell count [6] was 95%. The cell count [7] was 115%, the cell count [8] was 86.3% and the cell count [9] was 96.7%.

In the case of `N#CC[C@H](C1CCCC1)n1cc(-c2ncnc3[nH]ccc23)cn1` [ruxolitinib] + COc1cc2ncnc(Nc3ccc(Oc4ccccc4)cc3)c2cc1OC [SrcI1] (first compound 1 µM, partner dose 2 µM), the cell count [1] is reported as 104%, the cell count [2] is reported as 120% and the cell count [3] is reported as 126%. It also gave a cell count [4] of 103%, a cell count [5] of 94.4% and a cell count [6] of 92.9%. It also gave a cell count [7] of 133%, a cell count [8] of 91% and a cell count [9] of 112%.

Work on `Cc1cc(Nc2cc(N3CCN(C)CC3)nc(Sc3ccc(NC(=O)C4CC4)cc3)n2)n[nH]1` [Tozasertib] + CCCCCCCCCCCC1=C(O)C(=O)C=C(O)C1=O [Embelin] (first compound 0.006 µM, partner dose 1.2 µM) yielded a cell count [1] of 95%, a cell count [2] of 95.7% and a cell count [3] of 94.8%. The cell count [4] was 93.4%, the cell count [5] was 92.9% and the cell count [6] was 94.1%. The cell count [7] was 85.8%, the cell count [8] was 80.6% and the cell count [9] was 91.3%.

With `Cc1cc(Nc2cc(N3CCN(C)CC3)nc(Sc3ccc(NC(=O)C4CC4)cc3)n2)n[nH]1` [Tozasertib] + CC(C)(C)c1cnc(CSc2cnc(NC(=O)C3CCNCC3)s2)o1 [SNS-032] (first compound 0.006 µM, partner dose 0.01 µM) the cell count [1] was 87.1%, the cell count [2] was 76.8% and the cell count [3] was 101%. The cell count [4] was 87.6%, the cell count [5] was 104% and the cell count [6] was 97.1%. It also gave a cell count [7] of 93.8%, a cell count [8] of 72.9% and a cell count [9] of 108%.

For `N#CC[C@H](C1CCCC1)n1cc(-c2ncnc3[nH]ccc23)cn1` [ruxolitinib] + O=C(O)c1ccc(-c2c[nH]c3ncc(-c4ccccc4)cc23)cc1C1CCCC1 [GSK650394] (first compound 1 µM, partner dose 0.16 µM), the cell count [1] was 107%, the cell count [2] was 81.7% and the cell count [3] was 98.9%. It also gave a cell count [4] of 104%, a cell count [5] of 106% and a cell count [6] of 91.5%. For the same molecule, the cell count [7] was 117%, the cell count [8] was 134% and the cell count [9] was 106%.

With `N#CC[C@H](C1CCCC1)n1cc(-c2ncnc3[nH]ccc23)cn1` [ruxolitinib] + Oc1cc(-c2nc(-c3ccccc3)[nH]c2-c2ccncc2)ccc1Cl [L779450] (first compound 1 µM, partner dose 0.2 µM) the cell count [1] was 121%, the cell count [2] was 199% and the cell count [3] was 149%. The cell count [4] was 109%, the cell count [5] was 95.5% and the cell count [6] was 97.9%. The cell count [7] was 113%, the cell count [8] was 181% and the cell count [9] was 77.5%.

`Cc1cc(Nc2cc(N3CCN(C)CC3)nc(Sc3ccc(NC(=O)C4CC4)cc3)n2)n[nH]1` [Tozasertib] + O=S(=O)(c1ccccc1)N(CC(F)(F)F)c1ccc(C(O)(C(F)(F)F)C(F)(F)F)cc1 [T0901317] (first compound 0.006 µM, partner dose 1.4 µM) showed a cell count [1] of 94.6%, a cell count [2] of 69.3% and a cell count [3] of 73%. It also gave a cell count [4] of 74.9%, a cell count [5] of 92.6% and a cell count [6] of 97.7%. It also gave a cell count [7] of 96.7%, a cell count [8] of 91.2% and a cell count [9] of 85.3%.

Molecule `Cc1cc(Nc2cc(N3CCN(C)CC3)nc(Sc3ccc(NC(=O)C4CC4)cc3)n2)n[nH]1` [Tozasertib] + O=C1NC(=O)/C(=C/c2ccc(-c3ccc(F)cc3O)o2)S1 [AS252424] (first compound 0.006 µM, partner dose 1 µM) has a cell count [1] of 91.8%, a cell count [2] of 83.9% and a cell count [3] of 100%. It also gave a cell count [4] of 98.3%, a cell count [5] of 98.2% and a cell count [6] of 107%. For the same molecule, the cell count [7] was 89.4%, the cell count [8] was 93.1% and the cell count [9] was 95.9%.

With `N#CC[C@H](C1CCCC1)n1cc(-c2ncnc3[nH]ccc23)cn1` [ruxolitinib] + COc1cc(Nc2ncc(F)c(Nc3ccc4c(n3)NC(=O)C(C)(C)O4)n2)cc(OC)c1OC [Tamatinib] (first compound 1 µM, partner dose 0.4 µM) the cell count [1] was 53.5%, the cell count [2] was 85.5% and the cell count [3] was 90.1%. It also gave a cell count [4] of 97%, a cell count [5] of 91.9% and a cell count [6] of 95.2%. For the same molecule, the cell count [7] was 94.3%, the cell count [8] was 134% and the cell count [9] was 89.8%.

In the case of `N#CC[C@H](C1CCCC1)n1cc(-c2ncnc3[nH]ccc23)cn1` [ruxolitinib] + Oc1nc(-c2ccc(C(F)(F)F)cc2)nc2c1CSCC2 [XAV939] (first compound 1 µM, partner dose 2 µM), the cell count [1] is reported as 91.3%, the cell count [2] is reported as 98.8% and the cell count [3] is reported as 116%. The cell count [4] was 87.4%, the cell count [5] was 106% and the cell count [6] was 109%. It also gave a cell count [7] of 139%, a cell count [8] of 99.7% and a cell count [9] of 97.8%.

With `N#CC[C@H](C1CCCC1)n1cc(-c2ncnc3[nH]ccc23)cn1` [ruxolitinib] + COC(=O)c1sccc1S(=O)(=O)Nc1ccc(Nc2ccccc2)cc1OC [GSK0660] (first compound 1 µM, partner dose 1 µM) the cell count [1] was 105%, the cell count [2] was 190% and the cell count [3] was 108%. For the same molecule, the cell count [4] was 102%, the cell count [5] was 100% and the cell count [6] was 107%. The cell count [7] was 123%, the cell count [8] was 192% and the cell count [9] was 93.3%.

Work on `CC[C@]1(O)C[C@H]2CN(CCc3c([nH]c4ccccc34)[C@@](C(=O)OC)(c3cc4c(cc3OC)N(C=O)[C@H]3[C@@](O)(C(=O)OC)[C@H](OC(C)=O)[C@]5(CC)C=CCN6CC[C@]43[C@@H]65)C2)C1` [vincristine] + OCCn1cc(-c2cnc3nnn(Cc4ccc5ncccc5c4)c3n2)cn1 [PF04217903] (first compound 0.0001 µM, partner dose 1 µM) yielded a cell count [1] of 96.4%, a cell count [2] of 125% and a cell count [3] of 77.7%. For the same molecule, the cell count [4] was 92.4%, the cell count [5] was 97.8% and the cell count [6] was 98.3%. The cell count [7] was 88.6%, the cell count [8] was 126% and the cell count [9] was 95.7%.

Work on `CC[C@]1(O)C[C@H]2CN(CCc3c([nH]c4ccccc34)[C@@](C(=O)OC)(c3cc4c(cc3OC)N(C=O)[C@H]3[C@@](O)(C(=O)OC)[C@H](OC(C)=O)[C@]5(CC)C=CCN6CC[C@]43[C@@H]65)C2)C1` [vincristine] + NCC(=O)Nc1ccc(-n2nc(C(F)(F)F)cc2-c2ccc3c(ccc4ccccc43)c2)cc1 [OSU03012] (first compound 0.0001 µM, partner dose 1 µM) yielded a cell count [1] of 89.9%, a cell count [2] of 146% and a cell count [3] of 87.6%. The cell count [4] was 111%, the cell count [5] was 78.7% and the cell count [6] was 95.1%. For the same molecule, the cell count [7] was 103%, the cell count [8] was 77.6% and the cell count [9] was 97.9%.

`CC[C@]1(O)C[C@H]2CN(CCc3c([nH]c4ccccc34)[C@@](C(=O)OC)(c3cc4c(cc3OC)N(C=O)[C@H]3[C@@](O)(C(=O)OC)[C@H](OC(C)=O)[C@]5(CC)C=CCN6CC[C@]43[C@@H]65)C2)C1` [vincristine] + Oc1cc(-c2nc(-c3ccccc3)[nH]c2-c2ccncc2)ccc1Cl [L779450] (first compound 0.0001 µM, partner dose 0.2 µM) gave a cell count [1] of 102%, a cell count [2] of 105% and a cell count [3] of 96.3%. For the same molecule, the cell count [4] was 97.9%, the cell count [5] was 84.4% and the cell count [6] was 99.8%. It also gave a cell count [7] of 82.7%, a cell count [8] of 107% and a cell count [9] of 74%.

In the case of `N#CC[C@H](C1CCCC1)n1cc(-c2ncnc3[nH]ccc23)cn1` [ruxolitinib] + CN(NC(=O)CC(=O)NN(C)C(=S)c1ccccc1)C(=S)c1ccccc1 [STA4783] (first compound 1 µM, partner dose 0.006 µM), the cell count [1] is reported as 68.8%, the cell count [2] is reported as 81.2% and the cell count [3] is reported as 80.1%. It also gave a cell count [4] of 88.4%, a cell count [5] of 104% and a cell count [6] of 78.7%. The cell count [7] was 88.5%, the cell count [8] was 109% and the cell count [9] was 93.2%.
